{
  "source": "PubChem BioAssay AID652104",
  "about": "(National Center for Advancing Translational Sciences (NCATS), 2013)",
  "note": "Out of some 410,000 compounds screened, about 7,200 (1.8%) were called active. The inconclusive results got no clear call from the source; some entries with a clear call stand among them for comparison. Calls follow the shape of the dose curve; as a rule, active = well fitted activation curve with a large enough effect; inconclusive = small, poorly fitted or top-dose-only effect, or another doubt; inactive = no such curve, though single readings can be large or run the other way. No potency is given beside an inconclusive call; the fits are too rough. Potency is read from the fitted curve at half-maximal effect; tags tell the direction and shape of the fitted curve.",
  "data": [
    {"test": "qHTS of TDP-43 Inhibitors; also: nearly all actives have a fitted effect of over 50% in size; as to growth rescue (activation): % of control where 0% means no effect", "conditions": "TDP-43 expressing yeast growth rescue, BacTiter-Glo, 24 h; growth rescue (activation): at 46.1 µM (top of the series) unless noted", "outline": "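Luminescence from BacTiter-Glo reports growth of TDP-43-expressing yeast after 24 hr at 30 deg C with compound. Cells were raffinose-pregrown to mid-log, then seeded in galactose medium at OD600=0.02.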", "values": [
      {"smiles": "COc1ccc2c(c1)CCCC21NC(=O)NC1=O", "note": "(stereo unspecified)", "Potency": "inconclusive [activator, single point]"},
      {"smiles": "Clc1ccccc1C(c1ccccc1)(c1ccccc1)n1ccnc1", "Potency": "inconclusive [activator, partial curve, poor fit]"},
      {"smiles": "c1ccc2[nH]c(NC3=NCCC3)nc2c1", "growth rescue (activation)": "inactive: 16.8%"},
      {"smiles": "Cc1c(C(=O)Nc2ccc(C(C)C)cc2)sc2nc[nH]c(=O)c12", "growth rescue (activation)": "inactive: 11.2%"},
      {"smiles": "Cc1ccc(NC(=O)C2CCCN2S(=O)(=O)c2cccc3nsnc23)cc1Cl", "note": "(stereo unspecified)", "Potency": "inconclusive [activator, single point]"},
      {"smiles": "COc1ccc(CNC(=O)CSc2ncc(S(=O)(=O)c3ccc(C)c(Cl)c3)c(=O)[nH]2)cc1", "growth rescue (activation)": "inactive: 19.6%"},
      {"smiles": "Cc1ccc(/C=N/NC(=O)C2=NNC(c3ccccc3)(c3ccccc3)C2)c(O)c1", "Potency": "inconclusive [activator, full curve]"},
      {"smiles": "COc1ccc2nc(NC(=O)Cn3cnc4c(=O)n(C)c(=O)n(C)c43)sc2c1", "growth rescue (activation)": "inactive: -3.29%"},
      {"smiles": "CSCCC(c1nc2ccccc2[nH]1)n1c(=O)c(-c2cc3ccccc3[nH]2)nc2ccccc21", "note": "(stereo unspecified)", "Potency": "active: 17.8 µM"},
      {"smiles": "CCN(CC)S(=O)(=O)c1cccc(-c2n[nH]c(=S)n2/N=C/c2ccc(C(=O)OC)cc2)c1", "Potency": "inconclusive [activator, partial curve]"},
      {"smiles": "CC(=O)C1(C)C(=O)N(c2ccc(F)cc2)C(=O)N1c1ccc(F)cc1", "note": "(stereo unspecified)", "Potency": "inconclusive [activator, partial curve]"},
      {"smiles": "CC(C)C(N)c1csc(NC(=O)Nc2ccc(OC(F)(F)F)cc2)n1", "note": "(stereo unspecified)", "Potency": "inconclusive [activator, full curve]"},
      {"smiles": "O=C(Cc1c(O)c2ccccc2[nH]c1=O)NCc1cccc(F)c1", "growth rescue (activation)": "inactive: -9.2%"},
      {"smiles": "COC(=O)c1ccc(NC(=O)c2sc3nc(-c4ccccc4)cn3c2C)cc1", "Potency": "inconclusive [activator, single point]"},
      {"smiles": "CCCCc1nnc(NC(=O)C(=O)OCC)s1", "Potency": "inconclusive [activator, single point]"},
      {"smiles": "O=C(C1CCC(Cn2c(=O)c3sccc3n(Cc3cccc(F)c3)c2=O)CC1)N1CCCCC1", "note": "(stereo unspecified)", "Potency": "inconclusive [activator, single point]"},
      {"smiles": "COc1ccc2oc(C(=O)OCC(=O)Nc3ccc(C)c(S(=O)(=O)N4CCOCC4)c3)c(C)c2c1", "Potency": "inconclusive [activator, partial curve]"},
      {"smiles": "O=C(CSc1nnc(-c2ccccc2F)n1C1CCCCC1)Nc1cc(C(=O)O)ccc1Cl", "Potency": "inconclusive [activator, single point]"},
      {"smiles": "COc1cc(C(=O)NCc2ccc(F)cc2)cc(Cl)c1OC", "Potency": "inconclusive [activator, partial curve]"},
      {"smiles": "Cc1ncc(C)c2c([N+](=O)[O-])cccc12", "Potency": "inconclusive [activator, single point]"},
      {"smiles": "COC(=O)C1=C(C)N(Cc2ccco2)C(=O)/C1=C\\c1ccc([N+](=O)[O-])cc1", "Potency": "inconclusive [activator, single point]"},
      {"smiles": "CN(C)c1ncnc2c1ncn2[C@H]1CN(Cc2ccc(Cl)cc2)C[C@@H](CO)O1", "growth rescue (activation)": "inactive: 11.7%"},
      {"smiles": "CCOC(=O)c1c(C)[nH]c(C)c1S(=O)(=O)N1CCCC(C(=O)Nc2ccc(F)cc2F)C1", "note": "(stereo unspecified)", "Potency": "inconclusive [activator, partial curve]"},
      {"smiles": "C=CCn1c(SCCCc2ccccc2)nc2c1c(=O)[nH]c(=O)n2C", "Potency": "inconclusive [activator, single point]"},
      {"smiles": "COc1ccc(N2CCC(CNC(=S)Nc3cc(C)cc(C)c3)C2)cc1", "note": "(stereo unspecified)", "Potency": "inconclusive [activator, single point]"},
      {"smiles": "Cn1c(-c2sc3cc(C(F)(F)F)cnc3c2-c2ccccc2)n[nH]c1=S", "Potency": "inconclusive [activator, single point]"},
      {"smiles": "CSc1cccc(NC(=O)N2CCN(c3cc(-c4noc(C)n4)ccc3C)CC2)c1", "growth rescue (activation)": "inconclusive: 31.3% [activator]"},
      {"smiles": "COc1ccc(C2=NN(C(=O)c3cccs3)C(c3ccc(OC)cc3)C2)cc1", "note": "(stereo unspecified)", "growth rescue (activation)": "inactive: 8.64%"},
      {"smiles": "CCOC(=O)c1c(NC(=O)CN(CC)CC)sc2c1CCN(C(=O)OCC)C2", "growth rescue (activation)": "inactive: -12.1%"},
      {"smiles": "O=C1CCc2cc(S(=O)(=O)NCCc3ccc(Cl)cc3)cc3c2N1CC3", "Potency": "inconclusive [activator, full curve, poor fit]"},
      {"smiles": "CC(C)(C)c1ccc(/C=C/C(=O)O)s1", "Potency": "inconclusive [activator, partial curve]"},
      {"smiles": "COC(=O)c1c(CCl)noc1C(=O)NC(C)C", "Potency": "inconclusive [activator, partial curve]"},
      {"smiles": "O=c1onc(-c2ccc(Cl)cc2)n1Cc1ccc(F)cc1", "Potency": "active: 17.8 µM"},
      {"smiles": "COC(=O)c1ccc2nc(-c3ccccc3)c(Cc3ccccc3OC)n2c1", "Potency": "active: 35.5 µM"},
      {"smiles": "O=C(CCCCCn1c(=S)[nH]c2ccccc2c1=O)NCc1ccc2c(c1)OCO2", "Potency": "active: 7.08 µM"},
      {"smiles": "O=C1c2ccccc2[C@@H]2Cc3csc[n+]3[C@H]12", "growth rescue (activation)": "inactive: 20.2%"},
      {"smiles": "CN(CCc1ccccc1)C(=O)c1ccc(NC(=O)Cc2ccc(NC(=O)C3CCN(S(=O)(=O)c4cccc([N+](=O)[O-])c4)CC3)cc2)cc1", "Potency": "inconclusive [activator, partial curve]"},
      {"smiles": "CC(C)c1ccc(NC(=O)c2cc(S(=O)(=O)NCc3ccccc3Cl)ccc2F)cc1", "Potency": "inconclusive [activator, single point]"},
      {"smiles": "COc1ccccc1CNc1ccc(-c2nc(-c3ccncc3)no2)cc1[N+](=O)[O-]", "growth rescue (activation)": "inactive: -18.4%"},
      {"smiles": "O=C(c1ccco1)N1N=C(C2CCCCC2)CC1(O)C(F)(F)F", "note": "(stereo unspecified)", "Potency": "inconclusive [activator, partial curve]"},
      {"smiles": "S=c1[nH]nc(-c2cc3c(s2)-c2ccccc2CC3)o1", "Potency": "active: 14.1 µM"},
      {"smiles": "COc1ccc(CNC(=O)CC(c2ccc(OC)c(OC)c2)N2Cc3ccccc3C2=O)cc1", "note": "(stereo unspecified)", "growth rescue (activation)": "inactive: -0.81%"},
      {"smiles": "CCOc1nc(NC(=O)NS(=O)(=O)Oc2ccccc2)nc(-c2ccccc2)n1", "Potency": "inconclusive [activator, partial curve]"},
      {"smiles": "COc1ccc(-c2sc3ccccc3c2/C=C/c2ccc(N)cc2)cc1", "Potency": "inconclusive [activator, single point]"},
      {"smiles": "COc1cccc(C(O)c2nc(-c3ccccc3)cs2)c1", "note": "(stereo unspecified)", "Potency": "active: 15.8 µM"},
      {"smiles": "COc1cc(OC)cc(C(=O)Nc2cccc3cccnc23)c1", "Potency": "inconclusive [activator, partial curve]"},
      {"smiles": "Cc1nc(N2CCN(c3ccccc3)CC2)nc2c1C(=O)CCC2", "Potency": "active: 12.6 µM"},
      {"smiles": "CCc1ccc(Sc2cc(C(=O)NC(C)CC)c3ccccc3n2)cc1", "note": "(stereo unspecified)", "growth rescue (activation)": "inactive: 8.54%"},
      {"smiles": "CCCNc1nc(Nc2ccc(C)c(Cl)c2)c2cnn(C)c2n1", "Potency": "inconclusive [activator, full curve, poor fit]"},
      {"smiles": "CCOc1ccc(OCC(=O)Nc2nnc3n2CCS3)cc1", "growth rescue (activation)": "inactive: 10.3%"},
      {"smiles": "CCc1ccc(Nc2nnc(SCC(=O)NCCN3C(=O)CSC3=O)s2)cc1", "growth rescue (activation)": "inactive: 1.18%"},
      {"smiles": "Cc1cccc(NC(=O)c2ccc(N3CCCCC3)c([N+](=O)[O-])c2)n1", "Potency": "active: 3.55 µM"},
      {"smiles": "CCCCNc1c(-c2ccc(OC)c(SC3CCCCC3)c2)nc2ccc(C)cn12", "Potency": "inactive"},
      {"smiles": "Cc1cccc(/C(N)=N/OC(=O)c2ccco2)c1", "Potency": "active: 22.4 µM"},
      {"smiles": "Cc1ccc(O)c(CNc2cccc3cccnc23)c1", "growth rescue (activation)": "inconclusive: -38.4% [activator]"},
      {"smiles": "Cc1snc(SCC(=O)c2ccc(F)cc2)c1C#N", "Potency": "inconclusive [activator, partial curve]"},
      {"smiles": "COC(=O)c1cc(C)sc1NC(=O)C1C2C=CC(CC2)C1C(=O)O", "note": "(stereo unspecified)", "Potency": "inconclusive [activator, single point]"},
      {"smiles": "COc1cccc(NC(=O)Cc2cn(C)c3ccccc23)c1", "Potency": "inconclusive [activator, partial curve]"},
      {"smiles": "CCOc1ccc2nc(N3CCCC(C(=O)Nc4cccc(Cl)c4C)C3)sc2c1", "note": "(stereo unspecified)", "growth rescue (activation)": "inactive: 18.1%"},
      {"smiles": "Cc1cc(C)cc(NC(=S)NCCc2ccc(S(N)(=O)=O)cc2)c1", "growth rescue (activation)": "inactive: 2.05%"},
      {"smiles": "COc1cccc(OC)c1C(=O)OCC(=O)NCCCc1ccccc1", "Potency": "inconclusive [activator, partial curve]"},
      {"smiles": "C=C(C)C(=O)Nc1cccc(C2=NOC3(C2)C[C@H](C(N)=O)N(C(=O)COc2ccc(Cl)cc2)C3)c1", "note": "(stereo partly specified)", "Potency": "inconclusive [activator, full curve]"},
      {"smiles": "CCOC(=O)c1[nH]c2ccccc2c1NC(=S)Nc1ccccc1", "Potency": "inconclusive [activator, partial curve, poor fit]"},
      {"smiles": "Cc1c(C(c2cccc([N+](=O)[O-])c2O)c2c(C)n(C)n(-c3ccccc3)c2=O)c(=O)n(-c2ccccc2)n1C", "growth rescue (activation)": "inactive: -18.1%"},
      {"smiles": "O=C(OCC(=O)c1ccc[nH]1)c1ccc([N+](=O)[O-])cc1", "Potency": "inconclusive [activator, partial curve]"},
      {"smiles": "CCOc1ccc(S(=O)(=O)N2CCCCC2)c(C)c1C", "Potency": "inconclusive [activator, partial curve]"},
      {"smiles": "CC(C)(C)n1nnnc1C(c1cccnc1)N1CCN(c2ccccc2)CC1", "note": "(stereo unspecified)", "Potency": "inconclusive [activator, single point]"},
      {"smiles": "CCOC(=O)c1oc2c(c1C)-c1nn(Cc3ccccc3Cl)cc1CC2", "growth rescue (activation)": "inactive: 9.85%"},
      {"smiles": "O=C(Nc1ccccc1)c1cc(C2CCCN(C(=O)c3ccc4c(c3)CCO4)C2)on1", "note": "(stereo unspecified)", "Potency": "inconclusive [activator, partial curve, poor fit]"},
      {"smiles": "CC(C)CNS(=O)(=O)c1ccc(OCC(=O)Nc2ccc3c(c2)OCCO3)cc1", "growth rescue (activation)": "inactive: -16.6%"},
      {"smiles": "COC(=O)NCc1c(C)nn(-c2ccccc2)c1-n1cccc1", "Potency": "inconclusive [activator, partial curve, poor fit]"}
    ]}
  ]
}
